# Assay results as given in PubChem BioAssay (NCATS).
# Several values for one entry are separate records, joined by “and”; a condition that tells them apart may be missing. Equal values may be shown once. Inconclusive means that the source gave no clear call. Such entries were picked first, then a sample of the others. For some assays here: Where the call is inconclusive, the potency comes from a doubtful curve fit. Activity calls are given as the source filed them. Unless noted, calls follow the shape of the dose curve; as a rule, active = well fitted curve in the direction sought with a large enough effect; inconclusive = small, poorly fitted or top-dose-only effect, or another doubt; inactive = no such curve, though single readings can be large; an effect the other way counts as inactive or inconclusive.
# Tests used:
# [1] = target: Calcium and integrin-binding protein 1 (Homo sapiens) (UniProt Q99828); experiment: Primary qHTS for Identification of Calcium Integrin Binding Protein 1 (CIB1) Competitor (AID 1508620); conditions: CIB1-GST / FITC-alphaIIb peptide fluorescence polarization; series mostly up to 57.7 µM; also: potency is read from the fitted curve at half-maximal effect
# How it was run: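 CIB1-GST (1 uM final) and compound incubated 15 min at room temperature before adding FITC-alphaIIb peptide tracer (100 nM final). Competition for binding read by fluorescence polarization (ex 480, em 540) after another 15 min at room temperature.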
# [2] = target: Calcium and integrin-binding protein 1 (Homo sapiens) (UniProt Q99828); experiment: Validation qHTS for Identification of Calcium Integrin Binding protein 1 (CIB1) Competitor (AID 1508618); conditions: CIB1-GST / FITC-alphaIIb peptide fluorescence polarization; series mostly up to 114 µM
# How it was run: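 CIB1-GST (1 uM final) in 5 mM HEPES pH 7.4, 125 mM NaCl, 5 mM CaCl2, 0.01% Tween20 was preincubated 15 min at room temperature with compound (up to 114 uM), then FITC-alphaIIb peptide (100 nM) added for 15 min; fluorescence polarization read.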
# [3] = Primary qHTS for small molecule stabilizers of the endoplasmic reticulum resident proteome: Secreted ER Calcium Modulated Protein (SERCaMP) assay (AID 1508630); conditions: SH-SY5Y GLuc-SERCaMP (Gaussia luciferase released on ER calcium loss) secretion, thapsigargin, luminescence; series mostly up to 38.4 µM; also: potency is read from the fitted curve at half-maximal effect
# How it was run: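 GLuc-SERCaMP-expressing SH-SY5Y cells, pretreated 16 h with compound, are challenged with thapsigargin to empty ER calcium stores; after 4 h, coelenterazine is added directly to the medium and luminescence is imaged.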
# [4] = target: Cytochrome P450 2C9 (Homo sapiens) (UniProt P11712); experiment: Cytochrome P450 family 2 subfamily C member 9 (CYP2C9) small molecule antagonists: luciferase biochemical (cell-free) qHTS assay (AID 1645842; active = well fitted curve in the direction sought with a large enough effect in the repeat runs; inconclusive = weak or mixed curves; inactive = no such curve, though single readings can be large; an effect the other way counts as inactive or inconclusive; also: nearly all actives have a fitted effect of over 55% in size); conditions: P450-Glo CYP2C9 enzyme assay, luciferin luminescence; series mostly up to 57.4 µM
# How it was run: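 Luminescence, after 20 min with luciferin detection reagent, reflected CYP2C9 turnover during a 1 h NADPH-driven reaction at 37C. Enzyme-substrate mix contained 0.4% bovine serum albumin and was preincubated with compound 10 min at room temperature.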
# [5] = Primary qHTS for inhibitors of La Crosse Virus (LACV) - induced cell death in SH-SY5Y cells (AID 1508616); conditions: SH-SY5Y LACV cytopathicity rescue, ATP luminescence, 6 d; series mostly up to 4.29 µM; also: potency is read from the fitted curve at half-maximal effect
# How it was run: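 SH-SY5Y cells (6000/well) plated 24 h, then given compounds by pin transfer and LACV at 0.01 MOI for 6 days at 37C. Viability measured by ATPLite luminescence, normalized to infected DMSO and uninfected DMSO.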
# [6] = target: Calcium and integrin-binding protein 1 (Homo sapiens) (UniProt Q99828); experiment: Confirmatory qHTS for Identification of Calcium Integrin Binding Protein 1 (CIB1) Competitor (AID 1508617); conditions: CIB1 binding competition assay, biochemical qHTS; series mostly up to 114 µM; also: nearly all actives have a fitted effect of over 65% in size; also: potency is read from the fitted curve at half-maximal effect
# How it was run: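 Fluorescence polarization competition: CIB1-GST (1 uM final) in 5 mM HEPES pH 7.4, 125 mM NaCl, 5 mM CaCl2, 0.01% Tween20 preincubated 15 min RT with compound (up to 114 uM), then FITC-alphaIIb peptide (100 nM) added, 15 min RT.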
# [7] = Counterscreen qHTS for small molecule stabilizers of the endoplasmic reticulum resident proteome: GLuc-NoTag assay (AID 1508627); conditions: Gaussia luciferase NoTag secretion counterscreen, luminescence, thapsigargin 100 nM for final 4 h; series mostly up to 76.4 µM; also: potency is read from the fitted curve at half-maximal effect
# How it was run: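 Luminescence of Gaussia luciferase secreted into the medium (coelenterazine, 0.07x final, unlysed cells) was the read-out. Human SH-SY5Y neuroblastoma cells constitutively secreting untagged GLuc received compound for 19 h, then 100 nM thapsigargin for 4 h.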
# [8] = Cell Viability qHTS for small molecule stabilizers of the endoplasmic reticulum resident proteome (AID 1508629); conditions: cell viability counter-screen, 100 nM thapsigargin for final 4 h;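 also: potency is read from the fitted curve at half-maximal effect; compound exposure about 46 h in total before the viability read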
# Tags tell the direction and shape of the fitted curve.
# Chain of UniProt Q99828 (Q99828 whole entry, looked up): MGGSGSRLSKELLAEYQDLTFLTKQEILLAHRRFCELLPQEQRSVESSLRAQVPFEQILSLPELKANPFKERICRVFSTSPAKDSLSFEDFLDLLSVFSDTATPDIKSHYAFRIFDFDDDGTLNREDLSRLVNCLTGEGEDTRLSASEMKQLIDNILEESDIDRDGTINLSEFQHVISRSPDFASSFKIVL
# Chain of UniProt P11712 (P11712 whole entry, looked up): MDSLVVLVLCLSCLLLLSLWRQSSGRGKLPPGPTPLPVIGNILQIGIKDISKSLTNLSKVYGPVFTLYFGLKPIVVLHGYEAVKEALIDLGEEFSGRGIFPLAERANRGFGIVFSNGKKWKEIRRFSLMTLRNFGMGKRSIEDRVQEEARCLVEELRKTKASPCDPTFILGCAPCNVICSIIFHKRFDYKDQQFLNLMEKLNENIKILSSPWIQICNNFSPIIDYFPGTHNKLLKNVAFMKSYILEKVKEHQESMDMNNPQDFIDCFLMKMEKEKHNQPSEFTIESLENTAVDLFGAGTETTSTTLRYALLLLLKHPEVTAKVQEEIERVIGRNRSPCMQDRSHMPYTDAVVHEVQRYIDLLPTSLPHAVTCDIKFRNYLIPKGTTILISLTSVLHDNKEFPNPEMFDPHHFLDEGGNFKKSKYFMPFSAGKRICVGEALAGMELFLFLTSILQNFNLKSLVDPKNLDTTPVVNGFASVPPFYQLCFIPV
compound,measurement,setting,value
COc1cccc2c1C(=O)c1c(O)c3c(c(O)c1C2=O)C[C@@](O)(C(=O)CO)C[C@@H]3O[C@H]1C[C@H](N)[C@@H](O)[C@H](C)O1,Potency,[1],"inconclusive: 24.1 µM [inhibitor, partial curve]"
Clc1cccc(Cl)c1NC1=NCCN1,Potency,[2],inactive
same,Potency,[3],"inconclusive: 0.0033 µM [inhibitor, full curve]"
same,Potency,[4],inactive
O=C(O)c1cccnc1,Potency,[5],"inconclusive: 0.224 µM [inhibitor, partial curve, poor fit]"
same,Potency,[3],"inconclusive: 0.473 µM [inhibitor, full curve]"
CC(C)(O)CCc1ccc(OCc2cc(-c3cccc(OC(F)F)c3)c3ncccc3c2)cc1,Potency,[6],inactive
same,Potency,[1],"inconclusive: 24.1 µM [inhibitor, partial curve]"
Fc1ccc(C(c2ccc(F)cc2)N2CCN(CC=Cc3ccccc3)CC2)cc1,Potency,[1],active: 19.2 µM
same,Potency,[3],inactive
CC(C)C[C@H](NC(=O)c1cc2ccccc2s1)C(=O)N1CCN(C(=O)[C@H](CO)NS(=O)(=O)c2ccc(Cl)cc2Cl)CC1,Potency,[7],active: 44.7 µM
same,Potency,[8],"inconclusive: 20 µM [cytotoxic, partial curve]"
same,Potency,[3],active: 23.7 µM
COc1cc2ncnc(Nc3ccc(F)c(Cl)c3)c2cc1NC(=O)C=CCN1CCCCC1,Potency,[1],inactive
CN1CCN(c2ncc(-c3cc(Cl)cc(Cl)c3Cl)c(N)n2)CC1,Potency,[1],inactive
Cn1cc(-c2[nH]c3cc(NC(=O)[C@H](N)C4CCCCC4)cc4c3c2C=NNC4=O)cn1,Potency,[6],active: 50.1 µM
same,Potency,[1],"inconclusive: 4.29 µM [inhibitor, full curve, poor fit] and inconclusive: 3.98 µM [inhibitor, full curve, poor fit]"
